Results from the supplement of paper PMC3334620.
In all, about 33,000 sequences were measured (“E-score (-0.5 to 0.5)”: median about -0.035, highest 2% from about 0.35 on). The list shows a part of the results.

Each sequence was assayed against T1, Pdr3 (UniProt P33200) (assay: PBM E-score (8-mer binding enrichment) (E-score (-0.5 to 0.5)); higher = stronger / more preferred TF binding; most listed sequences are background and not binding sites). Settings: protein concentration: 200 nM; construct: GST-full length.
T1 sequence: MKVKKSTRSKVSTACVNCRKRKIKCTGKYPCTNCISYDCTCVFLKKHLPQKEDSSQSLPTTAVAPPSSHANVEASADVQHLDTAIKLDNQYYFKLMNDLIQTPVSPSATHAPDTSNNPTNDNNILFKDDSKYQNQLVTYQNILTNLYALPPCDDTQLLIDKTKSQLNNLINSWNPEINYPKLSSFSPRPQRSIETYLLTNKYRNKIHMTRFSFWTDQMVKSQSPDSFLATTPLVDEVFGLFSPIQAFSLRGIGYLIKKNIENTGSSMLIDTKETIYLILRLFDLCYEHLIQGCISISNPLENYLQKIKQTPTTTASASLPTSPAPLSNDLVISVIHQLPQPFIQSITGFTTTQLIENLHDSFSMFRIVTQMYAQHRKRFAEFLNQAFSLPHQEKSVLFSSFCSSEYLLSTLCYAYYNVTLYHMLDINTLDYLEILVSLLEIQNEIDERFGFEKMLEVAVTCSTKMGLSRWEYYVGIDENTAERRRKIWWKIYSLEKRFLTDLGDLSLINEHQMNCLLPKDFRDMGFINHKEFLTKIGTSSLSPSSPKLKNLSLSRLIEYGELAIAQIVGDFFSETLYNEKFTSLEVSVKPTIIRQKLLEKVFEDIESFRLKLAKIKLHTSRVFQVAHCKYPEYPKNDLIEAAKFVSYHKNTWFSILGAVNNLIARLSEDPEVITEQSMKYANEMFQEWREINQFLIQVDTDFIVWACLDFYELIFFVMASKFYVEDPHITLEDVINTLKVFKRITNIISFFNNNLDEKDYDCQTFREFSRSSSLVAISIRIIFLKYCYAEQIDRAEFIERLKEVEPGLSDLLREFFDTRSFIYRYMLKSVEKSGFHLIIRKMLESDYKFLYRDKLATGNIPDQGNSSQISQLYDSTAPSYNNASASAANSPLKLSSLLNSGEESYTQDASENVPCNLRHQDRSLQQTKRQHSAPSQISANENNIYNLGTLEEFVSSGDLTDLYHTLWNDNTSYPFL
Outline: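 Full-length yeast transcription factors or their DNA-binding domains, GST-tagged and expressed with PURExpress, were applied at about 100-200 nM to universal all-10-mer Agilent arrays. These arrays had been made double-stranded by primer extension on fresh or once-stripped slides. Detection used fluorescent anti-GST, normalisation used masliner, and E-scores for ungapped eight-base words pooled with reverse complements came from the Universal PBM Analysis Suite.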

Sequence | PBM E-score
GCGTAGAC | -0.222
CTGTTACC | -0.056
TGAGATAA | 0.116
CATGCTGG | -0.249
CTCTGATC | -0.116
ATCCAAGA | -0.0502
CGCCAAAA | 0.125
ACTTCGAC | -0.0852
GACGAGCA | -0.137
ACGACAGA | -0.0457
GTGGAATA | 0.122
ACTCCGCG | 0.397
GGACCGGA | 0.382
AGGACCGG | 0.133
GAATATCA | 0.13
CGTGAAGA | -0.0942
CTGGACGC | -0.118
ACCAAAAC | -0.0262
ACCGGGAG | 0.144
ATGTCTCC | 0.169
TAACACTA | -0.0344
ATGTGGAC | 0.0146
CTACTTGA | -0.238
GCTCTAGA | -0.146
ATGGACGA | 0.151

Sequence | PBM E-score
GGCAGCCA | 0.0184
CCTTCTTA | -0.185
CAGATCCC | 0.0667
CACAACCG | 0.243
ATAAGATC | -0.0639
AACGGTCA | 0.146
GCAGGGCC | -0.0226
CGACTTTC | 0.118
GCACAGTA | -0.0122
CATGGGAC | -0.0439
CGCAAGAA | 0.152
CCGAGACG | 0.238
AACTGCCG | 0.183
GCAAGAAA | -0.0345
ATCGTATC | -0.0863
AATACCGG | 0.29
AGTCCTTG | -0.159
GATGGCAA | 0.152
GGACGGAC | 0.293
TAAAGCTA | -0.417
CGCCGCTA | 0.274
AGTGCCCA | -0.0112
CCTATAGC | -0.262
ACGTCATA | -0.0705
AACTGCCA | -0.121

Sequence | PBM E-score
AGCGCATA | -0.028
CGCTCAGA | -0.0536
CCTTCGGA | 0.332
AGCATACG | -0.0567
ATCCCACG | 0.0216
CTTAGGTC | -0.0368
CTCACTAA | -0.121
CTAATATC | 0.145
GCCAGATA | -0.0384
ACCATCAA | -0.216
CCGTCAGC | 0.207
CCCTCATC | -0.137
CATGCGAA | 0.0697
CTGTAAAG | -0.197
CAGTCCGA | 0.304
CCGTGGAG | 0.382
CCTGCCCA | -0.132
ATTGTGAG | 0.0298
AATAGACG | 0.12
CCTCGCAG | -0.00057
ACGCCAAT | -0.0351
GAAATATA | 0.137
CAAGAGAG | -0.0941
CGCCTGTC | -0.18
CAGTCAGG | -0.307

Sequence | PBM E-score
ATCGTCAG | -0.169
CTACTGCA | -0.278
ATCACTGA | -0.185
CAGGCCGG | 0.0992
ACGAAATA | 0.0568
GCCGTACC | 0.134
TAGATACA | -0.129
AAGGCGTC | -0.0192
AACCACAG | -0.207
GTCGAGGA | -0.184
ACCATGCC | 0.0793
AGCGATGC | -0.142
GCGTGGCC | -0.096
ATTGGTAA | -0.0591
ACAGATGA | -0.264
AACACCCT | -0.0521
ACGGGGAA | 0.204
AAACCAGA | -0.139
CTTCATCC | -0.00929
AGAATCAT | -0.239
CTCGAGCA | 0.0481
CGGCCTTA | 0.14
ACAAGTGC | -0.173
ATCTCTGA | -0.143
CCTAACCG | -0.0117

Sequence | PBM E-score
CAAAACGG | 0.184
GCTCTTCC | 0.171
AAACCGAC | 0.119
ACTTGAAG | -0.218
ATTCATCG | 0.0666
CGTGCCGC | 0.187
ACACTGAG | -0.0845
TCATAAAA | 0.0033
CCGCGGGC | 0.484
CTAAATGA | -0.0538
AAGCCCTC | -0.169
AAAGTGGT | -0.0405
ACACATAC | 0.00409
ATCAAGCC | -0.13
GGACTGAA | -0.108
CCAGTGTC | -0.0301
AGCGGTTC | -0.0732
ACACCTAA | -0.157
ACGGAATG | 0.432
CAGAAACA | -0.148
GCAAACTA | -0.0365
AATCCGAT | 0.285
CTAAACAA | -0.208
ATCCCCCG | 0.278
ACCAACCT | -0.0633

Sequence | PBM E-score
CGAGGGGA | 0.0165
CGTTAATC | 0.0266
AGGTAAAT | -0.177
CGGGGCTC | 0.107
GGTGATAA | 0.0321
GGGAATAC | 0.162
GGATGCCA | -0.247
GGTCAGTA | -0.0368
ACAGTCTA | -0.209
CCACTTGA | -0.085
TAGCACTA | -0.216
GCTATTAC | -0.0754
CAGGAAAC | -0.0475
AACTTACG | -0.0454
TTAATCAA | -0.0535
GTACTATA | 0.0634
CCGAGACC | 0.244
GGGAAACC | 0.149
AAATCCGG | 0.39
GAACCGAA | 0.146
AAGTTGAC | -0.0507
CATCACCC | 0.23
GGAGCAAC | 0.0427
ACAGCGCT | 0.0308
CAAAAGCA | -0.153

Sequence | PBM E-score
GTGAAAAC | 0.0636
AGCGAAGC | -0.115
ACCCAACT | -0.161
AACCCCGC | 0.181
AATGCTCG | 0.108
CAAAAACA | -0.133
AATTGTTA | 0.0374
CAATAAAC | 0.0697
CCCTTCCA | -0.00559
GATTGAAC | -0.0537
ACGATATC | 0.103
TACATGCA | -0.149
AACGAATC | 0.134
ACCGATCA | 0.0886
ACTTTGCA | 0.00219
TACTCAAA | -0.0878
CCGTGTTC | 0.302
CCAGCCTA | -0.182
ATTGGTAC | 0.00164
ACGTTACA | -0.295
AACAGCGG | 0.0391
TCTCGAAA | -0.172
